The source of these data is the antibiotic and cytotoxicity screens of Wong et al. (2023).

Some of the results follow.

The subject of one test is HSkMC. Briefly: cytotoxicity call (relative viability < 0.9). The note with it: 10 µM.
A further test relates to HepG2. Briefly: cytotoxicity call (relative viability < 0.9). The note with it: 10 µM.
Another test has as its system S. aureus RN4220. Briefly: growth inhibition call (relative growth <= 0.2). The note with it: 50 µM.

As to `C[C@@H]1CN([C@H](C)CO)C(=O)c2cc(NC(=O)CCCCCC(=O)Nc3ccccc3N)ccc2O[C@H]1CN(C)S(C)(=O)=O`, the cytotoxicity call in the test with HSkMC and with HepG2 was “inactive” in each case. Moreover, the growth inhibition call in the test with S. aureus RN4220 is “inactive”.

For `C[C@H](CO)N1C[C@H](C)[C@@H](CN(C)C(=O)CCCN(C)C)OCCCC[C@H](C)Oc2ccc(NC(=O)Nc3ccc(C(F)(F)F)cc3)cc2C1=O`, the cytotoxicity call in the test with HSkMC and in the test on HepG2 was “inactive” each time. Besides, the growth inhibition call in the test with S. aureus RN4220 was “inactive”.

With `C[C@H]1CN([C@@H](C)CO)C(=O)Cc2cc(NC(=O)Nc3ccc(F)cc3)ccc2O[C@@H]1CN(C)S(C)(=O)=O`, the cytotoxicity call with HSkMC and with HepG2 was “inactive” throughout. In addition, the growth inhibition call in the test with S. aureus RN4220 is “inactive”.

For `COCCOC(=O)N1C(=O)[C@@]2(c3cc(C#CCC(C(=O)OC)C(=O)OC)ccc31)[C@H](C(=O)N1CCCCCCC1)[C@H]1C(=O)O[C@H](c3ccccc3)[C@H](c3ccccc3)N1[C@@H]2c1ccc(OCCO)cc1`, the cytotoxicity call with HSkMC and in the test with HepG2 was “inactive” throughout. Moreover, the growth inhibition call with S. aureus RN4220 is “inactive”.

`Cc1noc(C)c1NC(=O)Nc1ccc2c(c1)C(=O)N([C@H](C)CO)C[C@H](C)[C@H](CN(C)Cc1ccc3c(c1)OCO3)OCCCC[C@@H](C)O2`: the cytotoxicity call in the test with HSkMC and in the test on HepG2 was “inactive” throughout. The growth inhibition call in the test on S. aureus RN4220 is “inactive”.

Take `O=C1O[C@@H](CO)[C@H](O)[C@@H](O)[C@@H]1O`: the cytotoxicity call with HSkMC and in the test on HepG2 was “inactive” in each case. Also, the growth inhibition call with S. aureus RN4220 is “inactive”.

On to `COc1ccc2c(c1)c(-c1ccccc1)nn2-c1ccc(C)cc1`, for which the cytotoxicity call with HSkMC and with HepG2 was “inactive” throughout. The growth inhibition call with S. aureus RN4220 is “inactive”.

Turning to `COc1ccc(NC(=O)N(C)C[C@@H]2Oc3c(NC(=O)c4cnccn4)cccc3C(=O)N([C@H](C)CO)C[C@@H]2C)cc1`, the cytotoxicity call in the test with HSkMC and in the test with HepG2 was “inactive” in each case. Moreover, the growth inhibition call with S. aureus RN4220 is “inactive”.

As for `Cc1ccc(S(=O)(=O)N(C)C[C@H]2Oc3ccc(NC(=O)NC(C)C)cc3CC(=O)N([C@H](C)CO)C[C@H]2C)cc1`, the cytotoxicity call in the test on HSkMC and with HepG2 was “inactive” in each case. Further, the growth inhibition call in the test on S. aureus RN4220 is “inactive”.

`C[C@@H]1CN([C@@H](C)CO)C(=O)c2cc(NC(=O)C3CCCCC3)ccc2O[C@H]1CN(C)S(=O)(=O)c1cn(C)cn1`: the cytotoxicity call in the test with HSkMC and in the test with HepG2 was “inactive” in each case. For the same molecule, in the test with S. aureus RN4220, the growth inhibition call is “inactive”.

Regarding `O=C(C[C@@H]1CC[C@H]2[C@@H](COC[C@H](O)CN2S(=O)(=O)c2ccc(Cl)cc2)O1)N[C@@H]1CCN(Cc2ccccc2)C1`, the cytotoxicity call with HSkMC and in the test with HepG2 was “inactive” throughout. In addition, the growth inhibition call with S. aureus RN4220 was “inactive”.

Take `C[C@H](CO)N1C[C@H](C)[C@@H](CN(C)C(=O)Nc2cccc3ccccc23)Oc2ccc(NS(=O)(=O)c3ccccc3)cc2C1=O`: the cytotoxicity call in the test on HSkMC and in the test with HepG2 was “inactive” in each case. In the test on S. aureus RN4220, the growth inhibition call is “inactive”.

For the molecule `C[C@@H]1CN([C@H](C)CO)C(=O)Cc2cc(NS(C)(=O)=O)ccc2O[C@@H]1CN(C)Cc1ccc2c(c1)OCO2`, the cytotoxicity call in the test with HSkMC and with HepG2 was “inactive” in each case. Further, the growth inhibition call in the test on S. aureus RN4220 was “inactive”.

Regarding `C[C@@H]1CCCCO[C@H](CN(C)C(=O)Nc2cccc3ccccc23)[C@H](C)CN([C@@H](C)CO)C(=O)c2cc(N(C)C)ccc2O1`, the cytotoxicity call in the test on HSkMC and with HepG2 was “inactive” in each case. Further, in the test on S. aureus RN4220, the growth inhibition call is “inactive”.

Turning to `C[C@@H]1CCCCO[C@@H](CN(C)CC2CCCCC2)[C@@H](C)CN([C@@H](C)CO)C(=O)c2cc(NC(=O)C3CCCCC3)ccc2O1`, the cytotoxicity call with HSkMC is “inactive”. Moreover, in the test with HepG2, the cytotoxicity call is “active”. The growth inhibition call with S. aureus RN4220 was “inactive”.

Consider `CC(C)(C)[C@H]1COC(=O)[C@@H](NC(=O)OCC2c3ccccc3-c3ccccc32)CC=CC[C@H](CC(=O)NCCO)C(=O)N1`, for which the cytotoxicity call with HSkMC and in the test with HepG2 was “inactive” each time. Moreover, the growth inhibition call in the test with S. aureus RN4220 is “inactive”.

As for `C[C@H](CO)N1C[C@H](C)[C@H](CN(C)C(=O)Nc2ccccc2)Oc2ccc(NC(=O)CCCCCC(=O)Nc3ccccc3N)cc2C1=O`, the cytotoxicity call in the test with HSkMC and in the test with HepG2 was “inactive” each time. The growth inhibition call in the test with S. aureus RN4220 is “inactive”.

For `CC(C)NC(=O)N1Cc2cc(C(=O)NC3CCCCC3)nc(-c3cccc(-c4cccnc4)c3)c2[C@@H]1CCO`, the cytotoxicity call in the test with HSkMC and with HepG2 was “inactive” throughout. The growth inhibition call in the test with S. aureus RN4220 is “inactive”.

Regarding `C=CCCCCCCCCC(=O)O`, the cytotoxicity call in the test on HSkMC and in the test on HepG2 was “inactive” in each case. In addition, the growth inhibition call with S. aureus RN4220 is “inactive”.

Take `C[C@H](CO)N1C[C@H](C)[C@H](CN(C)C(=O)Nc2cccc3ccccc23)Oc2ccc(NS(=O)(=O)c3ccc(Cl)cc3)cc2C1=O`: the cytotoxicity call in the test on HSkMC and in the test with HepG2 was “inactive” each time. Besides, the growth inhibition call with S. aureus RN4220 was “inactive”.

For the molecule `COC(=O)C(c1ccccc1Cl)N1CCc2sccc2C1.O=S(=O)(O)O` (configuration not stated), the cytotoxicity call in the test with HSkMC and with HepG2 was “inactive” in each case. The growth inhibition call with S. aureus RN4220 is “inactive”.

Take `COCC(=O)N1C[C@H](C)[C@@H](OC)CN(C)C(=O)c2ccc(NC(=O)Nc3cccc(F)c3)cc2OC[C@@H]1C`: the cytotoxicity call in the test with HSkMC and with HepG2 was “inactive” each time. In addition, the growth inhibition call with S. aureus RN4220 is “inactive”.

Take `COc1ccc2c3c(n(c2c1)C)[C@@H](CO)N(Cc1ccccc1Cl)C[C@]13CCN(CC1)C(=O)CC1CC1`: the cytotoxicity call with HSkMC and with HepG2 was “inactive” each time. In addition, in the test on S. aureus RN4220, the growth inhibition call was “inactive”.

As to `COc1ccc(S(=O)(=O)Nc2ccc3c(c2)C(=O)N([C@H](C)CO)C[C@H](C)[C@@H](CN(C)C(=O)Nc2c(C)noc2C)OCCCC[C@@H](C)O3)cc1`, the cytotoxicity call in the test on HSkMC and in the test with HepG2 was “inactive” each time. For the same molecule, in the test on S. aureus RN4220, the growth inhibition call was “inactive”.

Regarding `COc1ccccc1-c1cccc(-c2nc(C(=O)NCc3ccncc3)cc3c2[C@@H](CCO)N([S@](=O)C(C)(C)C)C3)c1`, the cytotoxicity call in the test on HSkMC and in the test on HepG2 was “inactive” each time. Further, the growth inhibition call in the test on S. aureus RN4220 was “inactive”.

For `C=CCCCCCCCCCCCC(O)CC(O)CO` (configuration not stated), the cytotoxicity call in the test with HSkMC and in the test with HepG2 was “inactive” throughout. Moreover, the growth inhibition call in the test with S. aureus RN4220 is “inactive”.

Take `Cc1cc(C)nc(NS(=O)(=O)c2ccc(NC(=O)c3cccn(OCc4ccc(F)cc4)c3=O)cc2)n1`: the cytotoxicity call with HSkMC and with HepG2 was “inactive” throughout. Further, in the test on S. aureus RN4220, the growth inhibition call is “inactive”.

For `CN(C)C(=O)C[C@H]1CC[C@H]2[C@@H](COC[C@@H](O)CN2S(=O)(=O)c2ccccc2)O1`, the cytotoxicity call with HSkMC and in the test on HepG2 was “inactive” in each case. Besides, in the test with S. aureus RN4220, the growth inhibition call is “inactive”.

With `COc1ccc2c3c([nH]c2c1)[C@@H](CO)N(CC1CCCC1)C[C@]13CCN(CC1)C(=O)c1ccc(cc1)F`, the cytotoxicity call in the test on HSkMC (human skeletal muscle cells) was “active”. Moreover, the cytotoxicity call with HepG2 is “inactive”. For the same molecule, the growth inhibition call with S. aureus RN4220 is “inactive”.
